# This is one part of the list.
# B1: PX9937D-bvu-500-26-500 (Bacteroides vulgatus) (protein)
# chain: DPVSDITDLNYWKTPEQFDSFVFGLHSRFRSHSWNMFLLGEARSDVFGGIPFGGEATQGMERFPYNTLNAENPGISGFGDLYQNINQMNLFISRTLHTDVLTESARNYYLGQVYGLRAYYMYQLYRSWGDVVFTEEPSLGFEVGKLAKAATPAAEIFEQVKKDIESSLSYFGSDYTIKEKKSLWSKAATLMLKADVYLWSAHRDGGEGDARTAKNALVDIQNNISRSNLDLMDTYQGVFAYDNKGNKEIIFTIHNELFEYNLWNGNNDLFPQADYLGKFYNADGTLINTSVENNFGIMRLMVKLENFKKFLPGDTRRDVTLKDVYNKVENGKLELVGVYPHKYWGVMNGSTRVRCDDYPIYRYSDLLLMLAEAKVLLGEDPATEINRVRRRAFGDAYDASTVGFPNQEVDKRPADAVLQERLFEFMLEGKRWYDLRRFGDSYVLDYTPAEPARLLWPINQGALTNNPLLKQTVGY
# Legend:
# Assay in all cases: glycan array binding signal (z-score within array); higher = stronger binding
# Conditions in all cases: glycan notation: IUPAC condensed, linker removed
# GalNAc(b1-3)Gal = molecular target: GalNAc(b1-3)Gal
# Procedure, shortened: (§1)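 Negative Z-scores can be read as non-binding. The Z-score is calculated within each array and then averaged across arrays of one protein sequence at different concentrations or buffers and across linkers. Arrays, 3228 in all, were curated from the Consortium for Functional Glycomics database and kept only where the protein sequence was available.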
# [1] = molecular target: GalNAc(b1-3)Gal(a1-4)Gal(b1-4)GlcNAc
# Procedure, shortened: as §1
# [2] = molecular target: GalNAc(b1-3)Gal(a1-4)Gal(b1-4)GlcNAc(b1-3)Gal(b1-4)Glc
# Procedure, shortened: as §1
# [3] = molecular target: GalNAc(b1-3)Gal(a1-6)Gal(b1-4)Glc
# Procedure, shortened: as §1
# GalNAc(b1-3)GalNAc = molecular target: GalNAc(b1-3)GalNAc
# Procedure, shortened: as §1
# GalNAc(b1-3)GlcNAc = molecular target: GalNAc(b1-3)GlcNAc
# Procedure, shortened: as §1
# GalNAc(b1-4)Gal(b1-4)Glc = molecular target: GalNAc(b1-4)Gal(b1-4)Glc
# Procedure, shortened: as §1
# GalNAc(b1-4)GlcNAc = molecular target: GalNAc(b1-4)GlcNAc
# Procedure, shortened: as §1
# [4] = molecular target: GalNAc(b1-4)GlcNAc(b1-2)Man
# Procedure, shortened: as §1
# [5] = molecular target: GalNAc(b1-4)GlcNAc(b1-2)Man(a1-3)[GalNAc(b1-4)GlcNAc(b1-2)Man(a1-6)]Man(b1-4)GlcNAc(b1-4)GlcNAc
# Procedure, shortened: as §1
# [6] = molecular target: GalNAc(b1-4)GlcNAc(b1-3)GalNAc(b1-4)GlcNAc
# Procedure, shortened: as §1
# GalNAc(b1-4)GlcNAc6S = molecular target: GalNAc(b1-4)GlcNAc6S
# Procedure, shortened: as §1
# GalNAc(b1-6)GalNAc = molecular target: GalNAc(b1-6)GalNAc
# Procedure, shortened: as §1
# GalNAc3S(b1-4)GlcNAc = molecular target: GalNAc3S(b1-4)GlcNAc
# Procedure, shortened: as §1
# GalNAc3S(b1-4)GlcNAc3S = molecular target: GalNAc3S(b1-4)GlcNAc3S
# Procedure, shortened: as §1
# [7] = molecular target: GalNAc3S(b1-4)[Fuc(a1-3)]GlcNAc
# Procedure, shortened: as §1
# GalNAc4S6S(b1-4)GlcNAc = molecular target: GalNAc4S6S(b1-4)GlcNAc
# Procedure, shortened: as §1
# GalNAc6S(b1-4)GlcNAc = molecular target: GalNAc6S(b1-4)GlcNAc
# Procedure, shortened: as §1
# Glc(a1-4)Glc = molecular target: Glc(a1-4)Glc
# Procedure, shortened: as §1
# [8] = molecular target: Glc(a1-4)Glc(a1-4)Glc(a1-4)Glc
# Procedure, shortened: as §1
# Glc(a1-6)Glc(a1-6)Glc = molecular target: Glc(a1-6)Glc(a1-6)Glc
# Procedure, shortened: as §1
# [9] = molecular target: Glc(a1-6)Glc(a1-6)Glc(a1-6)Glc
# Procedure, shortened: as §1
# Glc(b1-4)Glc = molecular target: Glc(b1-4)Glc
# Procedure, shortened: as §1
# Glc(b1-6)Glc = molecular target: Glc(b1-6)Glc
# Procedure, shortened: as §1
# GlcA(b1-3)Gal = molecular target: GlcA(b1-3)Gal
# Procedure, shortened: as §1
# GlcA(b1-3)GlcNAc = molecular target: GlcA(b1-3)GlcNAc
# Procedure, shortened: as §1
# GlcA(b1-6)Gal = molecular target: GlcA(b1-6)Gal
# Procedure, shortened: as §1
# [10] = molecular target: GlcA3S(b1-3)Gal(b1-4)GlcNAc(b1-2)Man
# Procedure, shortened: as §1
# [11] = molecular target: GlcA3S(b1-3)Gal(b1-4)GlcNAc(b1-3)Gal(b1-4)Glc
# Procedure, shortened: as §1
# [12] = molecular target: GlcNAc(a1-3)Gal(b1-4)GlcNAc
# Procedure, shortened: as §1
# [13] = molecular target: GlcNAc(a1-4)Gal(b1-3)GlcNAc
# Procedure, shortened: as §1
# [14] = molecular target: GlcNAc(a1-4)Gal(b1-4)GalNAc
# Procedure, shortened: as §1
# [15] = molecular target: GlcNAc(a1-4)Gal(b1-4)GlcNAc
# Procedure, shortened: as §1
# [16] = molecular target: GlcNAc(a1-4)Gal(b1-4)GlcNAc(b1-3)Gal(b1-4)Glc
# Procedure, shortened: as §1
# [17] = molecular target: GlcNAc(a1-4)Gal(b1-4)GlcNAc(b1-3)Gal(b1-4)GlcNAc
# Procedure, shortened: as §1
# [18] = molecular target: GlcNAc(a1-4)Gal(b1-4)GlcNAc(b1-3)Gal(b1-4)GlcNAc(b1-3)Gal(b1-4)GlcNAc
# Procedure, shortened: as §1
# [19] = molecular target: GlcNAc(a1-4)Gal(b1-4)GlcNAc(b1-3)Gal(b1-4)[Fuc(a1-3)]GlcNAc(b1-3)Gal(b1-4)[Fuc(a1-3)]GlcNAc
# Procedure, shortened: as §1
# [20] = molecular target: GlcNAc(a1-6)Gal(b1-4)GlcNAc
# Procedure, shortened: as §1
binder,measurement,setting,value
B1,glycan array binding signal (z-score),GalNAc(b1-3)Gal,-0.465
same,glycan array binding signal (z-score),[1],-0.367
same,glycan array binding signal (z-score),[2],-0.005
same,glycan array binding signal (z-score),[3],-0.122
same,glycan array binding signal (z-score),GalNAc(b1-3)GalNAc,-0.663
same,glycan array binding signal (z-score),GalNAc(b1-3)GlcNAc,-0.418
same,glycan array binding signal (z-score),GalNAc(b1-4)Gal(b1-4)Glc,-0.02
same,glycan array binding signal (z-score),GalNAc(b1-4)GlcNAc,1.34
same,glycan array binding signal (z-score),[4],-0.282
same,glycan array binding signal (z-score),[5],-0.394
same,glycan array binding signal (z-score),[6],-0.065
same,glycan array binding signal (z-score),GalNAc(b1-4)GlcNAc6S,-0.065
same,glycan array binding signal (z-score),GalNAc(b1-6)GalNAc,-0.289
same,glycan array binding signal (z-score),GalNAc3S(b1-4)GlcNAc,-0.727
same,glycan array binding signal (z-score),GalNAc3S(b1-4)GlcNAc3S,-0.275
same,glycan array binding signal (z-score),[7],-0.133
same,glycan array binding signal (z-score),GalNAc4S6S(b1-4)GlcNAc,-0.21
same,glycan array binding signal (z-score),GalNAc6S(b1-4)GlcNAc,-0.308
same,glycan array binding signal (z-score),Glc(a1-4)Glc,-0.49
same,glycan array binding signal (z-score),[8],-0.375
same,glycan array binding signal (z-score),Glc(a1-6)Glc(a1-6)Glc,-0.377
same,glycan array binding signal (z-score),[9],-0.405
same,glycan array binding signal (z-score),Glc(b1-4)Glc,-0.503
same,glycan array binding signal (z-score),Glc(b1-6)Glc,-0.108
same,glycan array binding signal (z-score),GlcA(b1-3)Gal,0.052
same,glycan array binding signal (z-score),GlcA(b1-3)GlcNAc,-0.435
same,glycan array binding signal (z-score),GlcA(b1-6)Gal,-0.446
same,glycan array binding signal (z-score),[10],-0.565
same,glycan array binding signal (z-score),[11],-0.24
same,glycan array binding signal (z-score),[12],-0.541
same,glycan array binding signal (z-score),[13],-0.056
same,glycan array binding signal (z-score),[14],-0.411
same,glycan array binding signal (z-score),[15],-0.365
same,glycan array binding signal (z-score),[16],-0.605
same,glycan array binding signal (z-score),[17],-0.505
same,glycan array binding signal (z-score),[18],-0.141
same,glycan array binding signal (z-score),[19],-0.405
same,glycan array binding signal (z-score),[20],-0.242
